Experimental data from PubChem BioAssay AID686979 (National Center for Advancing Translational Sciences (NCATS), 2013).
The campaign covered roughly 420,000 compounds. About 50,000 (12%) were called active. Inconclusive results, whose numbers are uncertain, are shown with a selection of clear calls. Calls come from the whole dose curve; as a rule, active = well fitted inhibition curve with a large enough effect; inconclusive = small, poorly fitted or top-dose-only effect; inactive = flat fitted curve, though single readings scatter. No potency is given beside an inconclusive call; the fits are too rough.

Experiment: qHTS for Inhibitors of human tyrosyl-DNA phosphodiesterase 1 (TDP1): qHTS in cells in presence of CPT; note: nearly all actives have a fitted effect of over 55% in size
Conditions: chicken DT40 Tdp1-/-;hTDP1 cells + 20 nM CPT, ATP luminescence, 48 h; series mostly up to 46.2 µM
How it was run: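 Chicken DT40 Tdp1-/- cells complemented with human TDP1, 400 cells/well, exposed to compounds plus 20 nM camptothecin for at least 48 h at 37 C; viability read as ATP content by CellTiter-Glo luminescence.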
Potency is the fitted concentration of half-maximal effect; tags give direction and shape of the fitted curve.

Structure (SMILES) | Potency
NCc1csc(Nc2nncc3ccccc23)n1 | inconclusive [inhibitor, single point]
COc1cc(NC(=O)C(=O)Nc2ccc3nc4n(c(=O)c3c2)CCCCC4)cc(OC)c1OC | inconclusive [inhibitor, partial curve]
COc1ccc(C(=O)/C=C/c2cccnc2)c(OC)c1 | inconclusive [inhibitor, single point]
O=C(CN1C(=O)COc2ccc(S(=O)(=O)N3CCCCCC3)cc21)NCCc1ccccc1 | inconclusive [inhibitor, single point]
Cc1ccc(CN2CCNC(=O)C2CC(=O)NCc2cc(C)n(C)n2)cc1 (centres undefined) | inactive
O=[N+]([O-])c1cc(Br)c2c(c1)CCN2 | inactive
CCOC(=O)c1c(NC(NC(C)=O)C(Cl)(Cl)Cl)sc2c1CCCC2 (centres undefined) | active: 16.4 µM
Cc1cccc(C(=O)NC(=S)Nc2ccc(S(=O)(=O)N3CCN(C)CC3)cc2)c1 | inconclusive [inhibitor, single point]
O=C(NCc1cccnc1)c1cc(C2CCCCN2C(=O)CCCc2ccccc2)on1 (centres undefined) | active: 29.1 µM
CCOC(=O)c1nnn(-c2nonc2N)c1CNC(C)C | inconclusive [inhibitor, single point]
CN(C)C(=O)c1ccc(Nc2nnc(-c3ccc(O)cc3)c3ccccc23)cc1 | inconclusive [inhibitor, single point]
COC(CNC(=O)C1CCN(S(=O)(=O)c2cccc3nsnc23)CC1)OC | inactive
COc1ccc(CC(=O)Nc2nc3ccccc3s2)cc1S(=O)(=O)N1CCOCC1 | inconclusive [inhibitor, single point]
COC(=O)c1ccccc1NC(=O)N1CCC(n2c(C)nc3cccnc32)CC1 | inconclusive [inhibitor, single point]
COCCNC(=O)c1c(NC(=O)c2cc(=O)c3cc(Cl)ccc3o2)sc2c1CCCC2 | inactive
COc1cccc(C(=O)NC2CC3CCCC(C2)N3CC(=O)Nc2ccccc2C(F)(F)F)c1 (centres undefined) | inconclusive [inhibitor, single point]
CCOc1ccc(N(CC(=O)N/N=C/c2cc([N+](=O)[O-])ccc2Cl)S(C)(=O)=O)cc1 | inconclusive [inhibitor, single point]
O=C(COc1ccc2ccc(=O)oc2c1)Nc1ccc(N2CCCCC2)cc1 | inconclusive [inhibitor, single point]
O=C(c1cc(S(=O)(=O)Nc2ccccc2F)c(Cl)cc1Cl)N1CCN(CCO)CC1 | inactive
